Measured values published in the supplement of paper PMC3334620.
In all, about 33,000 sequences were measured (“E-score (-0.5 to 0.5)”: median about -0.04, highest 2% from about 0.36 on). This is one part of the list.

target: T1, Hmlalpha2 (UniProt P0CY09); assay: PBM E-score (8-mer binding enrichment) (E-score (-0.5 to 0.5)); higher = stronger / more preferred TF binding; most listed sequences are background and not binding sites; conditions: protein concentration: 200 nM; construct: GST-full length
T1 sequence: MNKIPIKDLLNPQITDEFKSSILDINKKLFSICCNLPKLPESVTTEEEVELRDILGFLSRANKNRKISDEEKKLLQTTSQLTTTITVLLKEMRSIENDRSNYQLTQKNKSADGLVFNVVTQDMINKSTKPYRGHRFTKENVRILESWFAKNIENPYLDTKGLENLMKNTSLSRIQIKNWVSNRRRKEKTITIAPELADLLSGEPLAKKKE
Method in brief: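 Masliner-normalised scans of fluorescent anti-GST signal were the basis for scoring. That signal came from GST-tagged yeast transcription factors applied at about 100-200 nM to double-stranded universal all-10-mer Agilent arrays on fresh or once-stripped slides. Each ungapped eight-base word, pooled with its reverse complement, received an E-score from the Universal PBM Analysis Suite.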

Sequence | PBM E-score
ACGGCCTG | -0.0496
GGAACGCC | -0.189
CCACCTGA | -0.205
AAAATCAA | 0.102
AACACCGC | 0.0614
GCAATCTA | 0.119
ACTGCGTG | -0.00695
GCAGCTCA | -0.181
TGATAACA | 0.351
CAGCGATC | -0.0974
CAGGCGGA | 0.00932
GTCACTCA | 0.0271
TAAAGAGA | 0.13
GACACCAC | -0.108
AGATAAAT | 0.0654
CGTAGTGA | 0.0926
ACGGCAGC | -0.0412
AATGTAGC | -0.0794
ACATACTC | 0.216
AGGTCGCA | -0.183
GTTTCAAA | 0.079
AGGAGGGA | -0.264
CATCGTGG | -0.287
TGCAGTAA | 0.0433
ACCGTGGG | -0.277

Sequence | PBM E-score
ACTAGGCA | -0.0725
GTCCGGAA | -0.0754
CACGCACG | 0.196
ACAGAGAT | 0.195
ATTGGGTG | -0.0614
ATTTTGCC | -0.0288
ATATTGCG | -0.0116
GTCCTCGA | -0.104
ACAGAGCA | 0.105
ACTCATTA | 0.183
AATATCTC | -0.119
CAACGCGC | 0.335
AGCAACAA | 0.199
ACGGTGAT | -0.00363
TAATCCCA | 0.164
ATCCGTCG | -0.0869
GATTGGAC | -0.158
ATTTGATC | -0.212
CGCCTCAG | -0.256
AATACCCC | -0.348
ATGGAATA | 0.115
AAAACCAG | 0.0428
CCTATCTA | -0.113
CCTAGAAC | -0.037
ACAACGCA | 0.261

Sequence | PBM E-score
CCACTAAA | -0.132
AGTTGGAG | -0.196
GAACTGAC | -0.00291
CTGGTCTC | -0.316
GCAACCAC | -0.0661
ACGTTGCC | -0.0821
ACCCATTG | -0.123
ACTGTGCT | 0.0299
CGGTGAGA | -0.0556
AGACCCGG | -0.18
ACCCGAGA | -0.255
CAATACAC | 0.431
CACTGGCG | 0.0622
GGGCCTAC | -0.191
ATGTCCCG | -0.275
GCACCACC | -0.282
CCTACAAA | 0.0287
GCCGTAGC | -0.102
CGTCAGAG | 0.0339
AAACGCTA | -0.017
GACGACAA | 0.104
GTGTTACA | 0.354
AGGCGATA | -0.203
AGCCGCCA | -0.246
TCACGGAA | -0.0341

Sequence | PBM E-score
AAGCATCC | -0.3
CGGGCTCA | -0.254
CTATTAAG | -0.156
CGGAGACC | -0.101
CTGACAGA | -0.1
AACCACAC | 0.165
TATCAATA | 0.115
AGTAAAAT | 0.16
ATTGGAAA | -0.094
GCCTAACA | 0.127
GTACCTTA | 0.106
CAATGCAA | 0.123
ATGATACC | 0.0611
AACGCTGC | 0.029
AAGTGAAC | 0.00784
AGGGAGAT | -0.303
CAAATGTG | 0.26
ACAAAAGC | 0.139
GTGCTCCA | -0.114
GCACACAA | 0.155
AAGTGTCA | -0.117
GCTCGTAA | 0.198
ACTCGGCA | -0.0129
GCCACTAA | -0.24
AATCCAAG | -0.128

Sequence | PBM E-score
TACCTATA | -0.0141
TCCGGACA | -0.165
AAGTAAAA | 0.121
CGCCGCCA | -0.183
CCGTACCC | -0.203
AAAACCTA | 0.156
GTTTAATA | 0.218
ACTGACTA | 0.0439
AAGCCGAA | 0.00646
ACCTCTAT | -0.118
GATCGCGA | -0.102
TACGGAGA | 0.0295
CTGTACAA | 0.288
TGACGAAA | 0.116
CCGGTAAG | -0.0586
TAACGCGA | 0.353
GCGCTCTA | -0.169
GGTTTCGA | -0.204
ATGGGGAG | -0.141
TATCTAAA | 0.141
AGATTGTA | 0.159
AAAAAGCC | -0.0506
GCCACAGC | -0.0844
TACACGGA | 0.447
ATCTGTAG | -0.0319

Sequence | PBM E-score
AACTCAAA | 0.202
AAGCGACG | -0.112
CAGGGCAC | -0.126
GCAGTACC | 0.0301
AGTAATAG | 0.248
CTCGACTA | -0.0679
CGATGGCC | -0.21
AGGGGCCA | -0.278
CGTAAGCC | -0.0631
GTAGGTGA | 0.116
TCAGATGA | 0.00478
CCCACTAG | -0.3
GTGAGCTA | 0.121
AAAACGTC | 0.148
CACATCGC | -0.0469
AGGCCCGC | -0.162
AAAGCCAC | -0.129
TATGTACA | 0.429
GATAGTAA | 0.0606
GTCAAAAC | 0.173
ACTGCCTC | -0.0994
CAAGACCG | -0.0879
CTCTGAAG | -0.259
CATGAGAC | 0.0704
ATCATCCA | -0.233

Sequence | PBM E-score
AACCGTCT | -0.164
TGGCCTAA | -0.0483
TGCATCAA | 0.0377
GGCGCATA | -0.0781
ATATAAAG | -0.0907
TGACTGCA | -0.12
CTGGAGAC | -0.191
AAAAATTG | 0.0425
AAAGGACG | 0.052
TGGCATAA | 0.158
CGACATAG | 0.139
CGTACGCA | 0.106
TCCTGCAA | -0.15
GGGGCGAC | -0.221
AACCATTC | -0.123
ACATCGCC | 0.0613
CGTTCTTA | 0.148
CAATGCCA | -0.0809
AGTTTTAT | 0.163
CCGAAGTA | 0.0976
CGCCATAC | -0.036
TAGAAGAA | 0.00123
AATCAACT | 0.232
CAAATAAC | 0.279
ATCGCAGC | -0.13

Sequence | PBM E-score
GCTGTAAA | 0.336
AAACGGGG | -0.0854
ATACACAA | 0.42
AGGCTCCG | -0.228
CCGGCAGC | -0.36
CTACGCAG | 0.228
CGTCTGGC | -0.0586
AGGTACAG | -0.014
AAGAACTA | 0.142
AGTGGCTC | -0.191
CATCTGTA | 0.0908
CACCAACA | 0.0464
GATATTGA | -0.135
TCGAGTCA | -0.0925
TAGAAACA | 0.205
GAATTTAA | 0.0915
GTCGCCAA | -0.173
TCACAACA | 0.324
CCACTCAA | 0.1
CCGCCTGC | -0.227
ATATGACA | 0.18
CTACCACA | -0.0802
ATGTTGGG | 0.159
CATGGCGA | 0.00745
AGGAAGGA | -0.126

Sequence | PBM E-score
AACTGAAC | -0.221
CGGGTTCC | -0.0966
TACAGCAA | 0.151
AACCCTTA | 0.176
CCAGCTGA | -0.0503
CATAAAAC | 0.121
GGGGGAGA | -0.351
AGCCGCGG | -0.196
AGGACGGC | -0.0368
ATTCGACA | 0.218
ACACCTTC | 0.00154
GCTAGGCA | -0.23
CTCGTCAG | -0.0334
CCGCTCTC | -0.296
ACATGCCA | 0.397
ATCCCTGC | -0.119
AATAATTC | 0.197
AGGACTAC | -0.172
AAATTAGG | -0.021
ACCCAGAA | 0.138
GCCTCTGA | -0.251
CAGGCACC | -0.143
ATTTAGGA | 0.0554
AAGAGTCC | -0.297
ATAATGAA | 0.167

Sequence | PBM E-score
CGCCTTGC | -0.0769
TGACGTAA | 0.288
AGGATTTG | 0.0442
ATAGCAGG | -0.0449
AACTCAGG | 0.0157
CGCTGTAG | -0.00579
CGTCTTAG | -0.106
AGGAGATA | -0.12
GGGCCGTA | -0.168
CGGTCCCC | -0.347
ACGCGGAG | 0.0752
GACCAGAC | -0.157
GCGCGCCC | -0.278
GCGCACTA | -0.166
AAGTGAAA | 0.0896
ACTATTGC | 0.0154
CTACAACA | 0.283
ATAGACGA | 0.132
CCATGAAG | -0.0572
CTAGCCCA | -0.216
AGGACCTG | -0.245
CGCTCACA | -0.148
AGTTCAGA | -0.0654
ATCAGCTA | -0.0578
GAAACATA | 0.192

Sequence | PBM E-score
AGGATGTC | 0.0843
CGATGACA | 0.181
CTGGCGGA | -0.213
GTGCGGCA | -0.231
ACAATAGC | 0.1
CCGTTTGA | -0.0311
CCGTCTGA | -0.211
ACTTAAGA | 0.112
CCGCTCAC | -0.38
GCTTACAC | 0.362
ATCCTGCC | -0.273
ACGTTGGG | 0.0081
GGAACAAC | -0.00609
TCAGGAGA | -0.123
CCGTAACG | -0.203
ACGGTATA | -0.104
GAGGTAAA | 0.228
GAGGGAAC | -0.165
AACGTGTC | 0.263
GGAGAGCC | -0.176
CCGAGGAC | -0.123
GAAACGTA | 0.0718
GTGGCGAA | 0.105
ACAGTCGT | -0.114
GAACAGCA | 0.148

Sequence | PBM E-score
GCTCAACA | 0.257
AAGCGACT | -0.0487
ATGACAAC | 0.251
AAAATTCC | -0.0102
GATGCGAC | -0.26
GTTTCCCA | -0.0865
ACTTGCCT | -0.0609
CACGAAGC | 0.025
CGCGGCAC | -0.0823
ACGGGGTA | -0.142
GCATTTGA | 0.0634
AGTTCCGA | -0.111
ACTTCGTC | -0.037
CCGACTTC | -0.251
TGCATAAA | 0.169
AGGACCTC | -0.0898
GGTTGTCA | 0.107
AAGACTCT | -0.0145
CTAGGACA | 0.0398
AAGCTTCA | -0.12
ACAATACT | 0.216
CTTGCTGA | -0.119
CACCGCCC | -0.149
CCTATAGG | -0.299
ACACGGAT | 0.36

Sequence | PBM E-score
CGCGAGTC | -0.171
CGAGTGTA | 0.149
GCAAACCC | -0.0245
AAACGGGT | 0.153
GTAAGGGA | -0.0355
CTTAATCA | 0.0319
AGCAGCGA | 0.0529
AACGTTGC | 0.0955
ACGACATA | 0.134
GATCAATC | -0.166
GCCAACGC | 0.0928
AAACAGGA | 0.149
CCGTAGGA | -0.273
CAGCGCTG | 0.111
CTACTAGA | -0.0423
CCCTTTAG | -0.261
ATCTCTCC | -0.107
TAATGCAA | 0.0682
AAGACGAA | 0.0103
CTAACCAG | 0.0246
CAAATATG | 0.134
AAATAAAC | 0.149
ATACGAAG | 0.0224
CCGACAGC | -0.203
AAGTCTGT | 0.18

Sequence | PBM E-score
ACCGTTTC | 0.0108
CTACCGTA | 0.0168
GACCGCCC | -0.244
CGGGTTGC | -0.105
CTACTCCC | -0.112
ATGATATA | 0.048
AGGTGTAT | 0.0902
ACGGTTAC | 0.15
ATAGCACA | 0.112
CTTGGGAC | -0.351
CGTAAACG | 0.221
AGAGTCTC | -0.308
CCGCAATC | -0.227
AGGGGATA | -0.233
CCTTAACA | 0.291
ATTTAGTG | -0.0187
TAATAGCA | 0.0831
AGACGAAT | -0.0523
ACTGTTGG | -0.203
